Laboratory results published in PubChem BioAssay AID2060610 (Molecular Pharmacology Branch, DTP, NCI, 2025).
Certain results were filed several times, with different values. The list is limited to them. There may be further records. Results that share an entry are repeated measurements across runs, samples, wells, individuals or studies. Dates in brackets are months of testing.

Tested on: 616215-338-R-J1-PDC complex spheroids, viability % test/control
Assay: Anticancer human tumor 616215-338-R-J1-PDC patient-derived colon adenocarcinoma cell line growth inhibition [CLK]
Settings: compound alone 10 µM; stronger effect = lower value
Source text: A high-throughput screen of multi-cell type tumor spheroids was designed to identify active combinations of […] and targeted small molecules. Complex spheroids include a stromal component modeled by human endothelial cells (HUVEC) and fibroblasts modeled by human mesenchymal stem cells (MSCs). The concentration ranges selected for each drug and investigational agent were based upon clinically achievable concentrations if the clinical Cmax of the agent was known.
Compounds. The drugs and investigational agents: cirtuvivint (SM08502; NSC835563), CC-671 (NSC850746), vemurafenib (NSC761431), tapotoclax (NSC804041), sotorasib (NSC818433), adagrasib (NSC831453), MRTX-1133 (NSC836407), BAY2416964 (NSC825713), copanlisib (NSC816437), inavolisib (NSC800729), abemaciclib (NSC768073), osimertinib (NSC779217), entinostat (NSC756642), eltanexor (KPT-8602, NSC794443), venetoclax (NSC766270), ceralasertib (NSC777638), bortezomib (NSC756655), olaparib (NSC753686), talazoparib (NSC767125), alisertib (NSC759677), peposertib (NSC802822), gemcitabine (NSC613327), 5-fluorouracil (NSC19893), SN-38 (NSC673596), oxaliplatin (NSC266046), paclitaxel (NSC125973), and doxorubicin (NSC123127), were obtained from the National Cancer Institute (NCI) Developmental Therapeutics Program Chemical Repository. […] If the clinical Cmax for an agent had not been determined, the highest concentration tested was 10 microM. […]
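Further: spheroids exposed to agents for 7 days; 100% = DMSO vehicle wells.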

| Compound | viability, T/C |
| --- | --- |
| CC1(C)CCC(CN2CCN(c3ccc(C(=O)NS(=O)(=O)c4ccc(NCC5CCOCC5)c([N+](=O)[O-])c4)c(Oc4cnc5[nH]ccc5c4)c3)CC2)=C(c2ccc(Cl)cc2)C1 | 3.31% [2023-07] and 99.6% [2023-08] |
| COC1C=CCC(C)C(C)S(=O)(=O)NC(=O)c2ccc3c(c2)N(CC2CCC21)CC1(CCCc2cc(Cl)ccc21)CO3 (configuration not stated) | 0.01% [2023-07] and 50.4% [2023-08] |
